Among the data in the supplement of paper PMC10126150 are switch fluorescence ratio values, retold here.

Values marked as one replicate rest on one cluster of the flow cell; about a third of the high ones do not repeat.

For the series, the system named is ATP. The series is described as follows: switch fluorescence ratio, 500 uM ATP over buffer (Cy3 cluster intensity, sum of 5 cycles each) (fold (ratio)); higher = stronger signal-on switching upon ATP binding; sequences stand for … in TCGTCGGCAGCGTCAGATGTGTATAAGAGACAGTTTTTTTTTTTTTTTTTTTTTTTTT…TC. Particulars: aptamer strand: ATP DNA aptamer (quencher-CACCTGGGGGAGTATTGCGGAGGAAGG + anchor), 100 nM annealed; ATP concentration: 500 uM; one replicate. The procedure, abridged:
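Cy3-labelled switching-strand clusters on a modified Illumina MiSeq flow-cell were annealed to 100 nM quencher-labelled ATP aptamer, imaged in selection buffer, then imaged after 15 min with 500 uM ATP at 22 °C. Five buffer/ATP cycles ran, with NaOH stripping and re-annealing between them. The fluorescence ratio is summed target-cycle over summed buffer-cycle Cy3 intensity per cluster, averaged per switch-domain sequence. Clusters outside 100-1000 RFU were excluded.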
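Further: ATP exposure 15 min at 22 °C before imaging.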

Turning to AGGCATGAAT, the switch fluorescence ratio worked out at 1.06.
To AACCACCAGT belongs 1.3; to CCAGGGAAGG, 1.11.
For TCAAGATTTA, the switch fluorescence ratio is 0.928.
To CTTAAGTCGT belongs 0.939.
The value for AACGTTTATG was 0.997; that for CACAGTATCA was 1.07.
Take TGGGTATCGA: the switch fluorescence ratio is 0.995.
For the sequence TCAGCGGGAC, the switch fluorescence ratio is 3.91.
The value for GGGCCCCGTT was 0.967; that for GTGCTTACCT was 1.14.
The value for GTTCACCCCC was 1.69.
To GCCGGTATCA belongs 0.997.
In the case of ACGTGGCGGC, the switch fluorescence ratio turned out to be 1.02.
With ATGAGGATTT, the switch fluorescence ratio came to 0.992.
TCAGTCGACC: the switch fluorescence ratio is 0.921.
The value for TGGGTTGCCC was 1.01; that for CGTCCCAAGT was 1.7; that for ACTCTCA was 1.02.
To TATAGGCAAC belongs 1.03.
The value for AGCTTGATAT was 0.94; that for ATGGGAGCCG was 0.987; that for GGCACTTGTG was 1.
For the sequence TTGCTCATCA, the switch fluorescence ratio came out at 1.02.
To CCGCCACCCG belongs 1.73.
To AGGTGGGGCC belongs 1.03.
To ATTCGTACCA belongs 1.01; to TCGTGGTTCA, 0.989.
For ATATTAGTGG, the switch fluorescence ratio amounted to 0.985.
The value for TCCTCGGA was 1.04; that for GCCGCGGAGG was 1.04; that for GGTGACAGGT was 1.01.
The value for TATGAGTTAA was 0.998.
The value for TATGAAAGGT was 1.07; that for AGAGTAGGTA was 0.955; that for TAGGCTTT was 1.03.
As for CCGGCCGCGG, the switch fluorescence ratio was determined as 1.11.
The value for GATAGCGACT was 0.958.
The value for CAAGTGTGTA was 0.993; that for CGGAAGGTT was 0.992.
For the sequence TCTGTTACCA, the switch fluorescence ratio came out at 0.973.
The value for AACAGCCGGT was 1.03.
For TGCCCTTCGG, the switch fluorescence ratio amounted to 0.995.
In the case of ACACACGTC, the switch fluorescence ratio is 1.47.
To TAGTATGTAC belongs 1.06; to CTGTTAGTAT, 0.968.
To AATTCGCATG belongs 1.06; to GAGCTAAGAT, 1.02; to CCAGCTGGA, 0.977.
To ACCTTCTTGC belongs 1.79.
For GGCTGCCTAT, the switch fluorescence ratio is 1.03.
The value for CCACGATAAT was 1.21.
The value for TTTCACCGGT was 1.02; that for TCAGTCCTAG was 0.999.
With GAAACTATCC, the switch fluorescence ratio is 1.38.
Turning to ATCAGTCCAG, the switch fluorescence ratio turned out to be 1.02.
To TGTGTTTAGA belongs 1.01; to GTTGTTGGGC, 1.04; to TTCGTGGGCA, 1.11.
As to CGTCGACGCC, the switch fluorescence ratio was found to be 1.02.
The value for GGCGCAAATT was 1.02; that for TGTGTCCGCT was 1.03; that for TTACATGGGG was 0.992.
To GGGTGGTACT belongs 1.01.
The value for CATGCTGGGA was 1.04.
CAAATCCCAG: the switch fluorescence ratio worked out at 1.04.
TGACGTAGTA: the switch fluorescence ratio was 1.02.
GTCTTACAAA: the switch fluorescence ratio worked out at 1.
To TACCCGATG belongs 1.04.
The value for GTGTTTGCAT was 0.992; that for TTGCAGTGGT was 0.931.
As for CTGGGTCATT, the switch fluorescence ratio stood at 1.01.
The value for GATCGCTGGG was 1.03.
The value for TGGCAGGAGA was 1.05.
To GAAGTTAGCA belongs 0.989; to AGTGCCTTCG, 1.15.
For the sequence GCTGGCAGGG, the switch fluorescence ratio amounted to 1.02.
To CAACCGGCAA belongs 6.15; to TGGTTAAGCT, 1.01.
In the case of CGGCGTGGGA, the switch fluorescence ratio was 1.03.
To GGATTGCAGA belongs 0.977; to GTTCCGAATA, 1.25.
To GGGGCTCCAT belongs 0.942; to TAGACTGCTT, 1.01.
On to CTAGTCTCGA, for which the switch fluorescence ratio amounted to 1.
The value for ATGCGTATGA was 1; that for GGAATGATGT was 0.988.
The value for GGCGCAGTTA was 1.
To GCCCCGGTCG belongs 1.06; to TACATACTCA, 1.34; to TTTAATACAG, 0.966.
For the sequence CGCCGCGGGC, the switch fluorescence ratio was found to be 2.75.
To TTCCTCCATT belongs 1.04; to CGCCAAGAGG, 1.15.
To CCCGATATAG belongs 1.92.
To TCCATGAACT belongs 1.02.
AGCGAACATA: the switch fluorescence ratio was 0.975.
On to GCGTGGGCAG, for which the switch fluorescence ratio came out at 1.
To GGCCGGCTTT belongs 1.02; to TTTGTGATAT, 1.02.
The value for CCGGCCACCT was 1.06; that for TTTACCACAA was 1.06; that for TAGGGACCAA was 1.01.
With TAAACCCGTC, the switch fluorescence ratio turned out to be 1.23.
As to GAGACGTTAA, the switch fluorescence ratio was determined as 1.1.
The value for ATTTCGGCGC was 0.996; that for GAGTCTGCTG was 1.08.
To CTTTCTGTCG belongs 1.
To TTAAGCCAGT belongs 0.991.
Regarding ATTCTTAGGT, the switch fluorescence ratio is 0.992.
To AGCACAGCAT belongs 1.01.
Turning to GAGCGGTCGA, the switch fluorescence ratio was 1.04.
As for TAATGCAAGC, the switch fluorescence ratio stood at 1.35.
On to TCCCAGAGGT, for which the switch fluorescence ratio is 1.1.
With TAAATTCTGT, the switch fluorescence ratio turned out to be 0.946.
To GCAACATTAT belongs 1.01.
The value for CGACCCTTC was 1.13; that for TAGGGCCCGT was 1.03.
The value for GACGTTAGCA was 1.1; that for GGCTGAGCGC was 0.976.
